Data as given in article PMC4336329 (PLoS ONE, 2015).
The campaign covered roughly 310,000 compounds. About 2,200 (0.71%) showed an effect of 50% or more. Effects have a minus sign here. Some of the results follow.

molecular target: human ether-à-go-go-related gene (hERG) potassium channel (human, UniProt Q12809); experiment: primary screen, population patch clamp on CHO cells stably expressing hERG
Sequence (Q12809 whole entry, looked up): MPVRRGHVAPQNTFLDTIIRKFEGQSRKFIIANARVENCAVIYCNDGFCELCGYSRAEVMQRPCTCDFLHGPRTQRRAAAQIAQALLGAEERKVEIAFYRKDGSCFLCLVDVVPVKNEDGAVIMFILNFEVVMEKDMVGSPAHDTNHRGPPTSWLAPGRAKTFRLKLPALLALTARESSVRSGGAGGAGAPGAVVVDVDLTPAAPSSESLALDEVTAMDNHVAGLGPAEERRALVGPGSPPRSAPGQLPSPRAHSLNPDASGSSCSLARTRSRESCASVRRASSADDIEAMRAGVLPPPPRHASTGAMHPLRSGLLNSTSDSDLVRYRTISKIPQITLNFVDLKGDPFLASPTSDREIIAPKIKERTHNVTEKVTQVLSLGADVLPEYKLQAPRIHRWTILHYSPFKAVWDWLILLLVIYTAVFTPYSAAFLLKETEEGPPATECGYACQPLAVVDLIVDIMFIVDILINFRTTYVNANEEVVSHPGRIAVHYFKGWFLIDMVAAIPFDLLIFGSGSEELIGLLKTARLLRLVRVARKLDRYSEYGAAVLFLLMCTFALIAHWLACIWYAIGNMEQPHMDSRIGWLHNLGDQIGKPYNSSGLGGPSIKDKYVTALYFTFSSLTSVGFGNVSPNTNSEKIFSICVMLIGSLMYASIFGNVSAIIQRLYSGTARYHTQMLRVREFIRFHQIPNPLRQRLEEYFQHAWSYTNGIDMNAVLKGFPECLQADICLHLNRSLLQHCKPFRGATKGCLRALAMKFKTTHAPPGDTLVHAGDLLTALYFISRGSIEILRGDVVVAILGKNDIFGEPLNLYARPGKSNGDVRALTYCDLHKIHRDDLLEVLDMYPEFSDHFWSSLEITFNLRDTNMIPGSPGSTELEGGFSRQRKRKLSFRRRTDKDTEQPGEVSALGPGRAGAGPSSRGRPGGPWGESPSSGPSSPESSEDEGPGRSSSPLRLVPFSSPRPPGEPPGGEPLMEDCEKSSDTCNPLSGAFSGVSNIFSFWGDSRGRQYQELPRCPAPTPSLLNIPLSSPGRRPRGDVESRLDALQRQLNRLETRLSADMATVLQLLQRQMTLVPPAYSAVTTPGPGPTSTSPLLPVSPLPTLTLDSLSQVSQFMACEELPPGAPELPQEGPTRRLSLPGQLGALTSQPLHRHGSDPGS

| SMILES | hERG current change (%, negative = inhibition) at 1uM |
| --- | --- |
| CCO[C@@H]1OC(C(=O)NC2CC2)=C[C@H](c2coc3ccccc3c2=O)[C@H]1CCCO | 7.01% |
| O=C(NC(Cc1ccc(O)cc1)C(=O)O)/C(=C/c1ccccc1)NC(=O)c1ccccc1 (stereo not drawn) | 11.4% |
| CC1(C)N=C(N)NC(Nc2cccc(Br)c2)=N1 | 7.11% |
| CC(=O)NC(=O)COC(=O)/C=C/c1c(C)nn(Cc2c(Cl)cccc2Cl)c1Cl | -1.17% |
| O=C(O)c1ccc(Cl)c(S(=O)(=O)NC(Cc2ccccc2)C(=O)O)c1 (stereo not drawn) | 13.3% |
| COc1ccc(C(=O)OCC(=O)Nc2c(C)cccc2C)cc1 | 15.3% |
| COc1ccc2nc(NC(=O)CSc3nc(C)cc(C)n3)sc2c1 | -4.47% |
| O=C(COC(=O)c1n[nH]c2ccccc12)c1cccc(Br)c1 | 13.3% |
| O=C(C1CC1)N1N=C(c2ccc(F)cc2)CC1(O)C(F)(F)F (stereo not drawn) | 12.8% |
| COc1ccc(OCC(=O)OCC(=O)NC2CCCCC2C)cc1 (stereo not drawn) | 9.61% |
| COc1ccc(C(=O)O)cc1S(=O)(=O)NCCCN1CCCC1=O | 17.2% |
| Cc1ccc(C(=O)NNC(=S)NC(=O)c2ccco2)cc1 | 12.9% |
| CC(Oc1ccc(-c2nccc(-c3ccccn3)n2)cc1)C(=O)NN (stereo not drawn) | 6.48% |
| O=C(Nc1ncc2c(n1)CC(c1ccco1)CC2=O)c1ccco1 (stereo not drawn) | 5.09% |
| Cc1ccc(S(=O)(=O)NCCCCCC(=O)Nc2nccs2)cc1 | 1.11% |
| Cc1cc(C(F)(F)F)nn1C(=O)c1cccnc1Cl | 2.82% |
| C/C=C/c1ccc(OCC(=O)OCC)c(OC)c1 | 5.3% |
| NC(=O)CSCc1ccc(Br)cc1 | 12.6% |
| COCCNc1cc(N)c([N+](=O)[O-])cc1[N+](=O)[O-] | -4.4% |
| CN(C1CC(C)(C)NC(C)(C)C1)S(=O)(=O)CC12CCC(CC1=O)C2(C)C.Cl (stereo not drawn) | 6.67% |
| CC1CC(C)CN(Cc2nc(N)nc(Nc3ccccc3)n2)C1 (stereo not drawn) | -52.3% |
| Cc1cc2cc(CN(Cc3ccc4c(c3)OCO4)C(=O)c3ccco3)c(=O)[nH]c2cc1C | 11.2% |
| Cc1cc2c(cc1S(=O)(=O)N1CCc3ccccc31)NC(=O)CO2 | 7.65% |

| SMILES | hERG current change (%, negative = inhibition) at 1uM |
| --- | --- |
| CCCCCC1CC(COc2ccccc2)OC1=O (stereo not drawn) | -3.31% |
| COc1ccc(CCNC(=O)CCN2C(=O)c3ccccc3C2=O)cc1OC | 11.8% |
| O=C(CN1CCCC1)Nc1ccc(NC(=O)Nc2ccccc2)cc1 | 9.97% |
| COc1ccc(CCN2C(=O)NC(NC(C)=O)(C(F)(F)F)C2=O)cc1OC (stereo not drawn) | 7.21% |
| O=[N+]([O-])c1ccc(NCCN2CCOCC2)c([N+](=O)[O-])c1 | -8.22% |
| CCOC(=O)/C(C#N)=C/C1=C(N2CCOCC2)CC(C)(C)OC1 | 4.43% |
| Cc1ccc(C(=O)NCCc2c[nH]c3ccccc23)c(C)c1 | 5.16% |
| CC1=C(C(=O)OCC2CCCO2)C(c2ccccc2)NC(=O)N1 (stereo not drawn) | 12.8% |
| CC(C)c1ccc(/C=N/NC(=O)c2nnn(-c3nonc3N)c2CN2CCOCC2)cc1 | 2.51% |
| COc1ccccc1C(=O)Nc1ccc2c(c1)nc(CCNC(=O)c1ccco1)n2C | 8.84% |
| COc1cccc(OC)c1C(=O)Oc1ccc2c(c1)O/C(=C\c1ccncc1)C2=O | 18.3% |
| Cc1cccc(C)c1NC(=S)Nc1ccc(F)cc1 | 7.6% |
| Cc1cc(/C=C(\C#N)C(=O)O)c(C)n1C1CC1 | -1.4% |
| Fc1cccc(F)c1CSc1nc2ccccc2[nH]1 | 0.26% |
| CC1CCCN(C(=O)C2CCN(S(=O)(=O)c3ccc4c(c3)CC(C)N4C(=O)C3CC3)CC2)C1 (stereo not drawn) | 10.8% |
| COCCNC(=O)C(=O)NNC(=O)COc1ccc(OC)cc1 | 8.3% |
| CCCC(=O)N1CCN(c2ccc(NC(=O)c3ccccc3)cc2)CC1 | 10% |
| Cc1cccc(-n2c(Cc3cc(=O)[nH]c(=O)[nH]3)nnc2SCC(=O)NCC2CCCO2)c1 (stereo not drawn) | 13.7% |
| O=S(=O)(c1ccc(Oc2ccc(Cl)cc2)c(S(=O)(=O)N2CCCCC2)c1)N1CCCCC1 | -4.29% |
| CCOC(=O)c1c(NC(=O)C2CCCN(S(=O)(=O)c3ccc(C)cc3)C2)sc2c1CCCC2 (stereo not drawn) | 14.5% |
| CC1(c2nnc(-c3cccc(Cl)c3)o2)CC(c2ccc(F)cc2)=NO1 (stereo not drawn) | 17.6% |
| COc1ccc(-c2c(C#N)c(N)nc3c2CCC3)cc1 | 8.34% |
| Cc1ccc(/C=N/NC(=O)c2cc(C3CC3)nc3ccccc23)o1 | 8.32% |

| SMILES | hERG current change (%, negative = inhibition) at 1uM |
| --- | --- |
| COc1ccccc1OCC(=O)NNC(=O)c1c(-c2ccccc2Cl)noc1C | 10.4% |
| CN(CC(=O)Nc1c(F)cccc1F)Cc1cccs1 | 18.5% |
| CC(C)(C)C(=O)CCN1C(=O)C2(OCCO2)c2ccccc21 | 5.53% |
| CC(Sc1nnc(-c2cccnc2)o1)C(=O)NC1CCCC1 (stereo not drawn) | -1.31% |
| COc1ccc(/C=C/C(=O)c2cc(F)ccc2OC(=O)c2ccccc2C)cc1OC | 3% |
| COc1ccc(-c2ccnc3ncnn23)cc1 | -4.44% |
| COc1cccc(CN(CC(=O)NCC2CCCO2)C(=O)CCC(=O)Nc2cc(C)on2)c1 (stereo not drawn) | 7.83% |
| COc1ccc(-c2nnc(SCC(=O)N3CCCCC3)o2)cc1 | 3.01% |
| CCOC(=O)Cn1c(=O)oc2cc(S(=O)(=O)N3CCCC(C)C3)ccc21 (stereo not drawn) | 18.2% |
| COCc1nnc(NS(=O)(=O)c2ccccc2)s1 | 8.1% |
| CC(C)CCN(Cc1ccco1)S(=O)(=O)c1csc(C(N)=O)c1 | -2.33% |
| C=CCNC(=O)CCNS(=O)(=O)c1ccc(Br)cc1 | 10.3% |
| Cc1cc2oc(C(=O)Nc3ccc(S(=O)(=O)Nc4onc(C)c4C)cc3)cc(=O)c2cc1Cl | 1.59% |
| CCC(=O)N1CCC2(CC1)Oc1ccc(Cl)cc1C(=O)C21CC(c2ccc(Cl)cc2)=NO1 (stereo not drawn) | 5.67% |
| CC(NC(=O)CS(=O)(=O)c1ccccc1)c1ccccc1 (stereo not drawn) | 9.13% |
| CSc1nc(-c2ccc(Cl)cc2)nn1C(=O)c1ccco1 | 5% |
| CCOC(=O)c1c(C)c(C(=O)NCc2ccccn2)c(C)n1C | 4.03% |
| Cc1ccc(S(=O)(=O)Nc2cccnc2)c(C)c1C | 13.6% |
| O=c1c(Cl)c(N2CCOCC2)cnn1-c1ncc(C(F)(F)F)cc1Cl | 3.18% |
| COc1ccc(OC)c(NC(=O)CSc2ccc3ccccc3c2)c1 | 1.53% |
| Cc1onc(-c2c(Cl)cccc2Cl)c1NC(=O)NNc1c(Cl)cncc1Cl | 6.76% |
| COc1ccc(NC(C)=O)cc1S(=O)(=O)N1CCn2cccc2C1C (stereo not drawn) | 2.1% |
| Cn1c(SCC(=O)NCc2cccs2)nnc1-c1ccco1 | 0.315% |

| SMILES | hERG current change (%, negative = inhibition) at 1uM |
| --- | --- |
| C/C(=N\NC(=O)C1COc2ccccc2O1)c1ccccn1 (stereo not drawn) | 5.55% |
| COc1ccc(NC(=O)C2C3CC/C=C\CCC32)cc1 (stereo not drawn) | 12.2% |
| CC1CCCN(c2nc3c(c(=O)n(C)c(=O)n3C)n2Cc2ccccc2)C1 (stereo not drawn) | 7.01% |
| CCn1c(SCC(=O)Nc2sc(C)c(C)c2C#N)nnc1C1CC1 | 3.68% |
| O=C(N/N=C1\CCc2ccccc21)c1ccncc1 | 18.5% |
| COc1ccc2[nH]c(C)c(CCNC(=S)Nc3cccc(C)c3)c2c1 | 12.5% |
| CCCCCCn1c(CN2CCN(Cc3ccccc3)CC2)nc2c1c(=O)n(C)c(=O)n2C | -47.2% |
| COc1ccc(CN(C)C(=O)CNC(=O)c2cccs2)c(OC)c1 | 10.9% |
| COc1ccc(OC)c(NC(=O)CCOc2cccc(C)c2)c1 | 9.09% |
| CCOc1ccc2[nH]c(=O)c(CN(CC3COCCO3)C(=O)C3CC3)cc2c1 (stereo not drawn) | 19.8% |
| CC(=O)Oc1cccc(NC(=O)c2cccc(C(=O)Nc3cccc(OC(C)=O)c3)c2)c1 | 13.3% |
| FC(F)(F)c1ccc(NCCc2ccccc2)nc1 | 17% |
| N#Cc1c(N)nc(-c2ccccc2)nc1-c1ccccc1 | 13.8% |
| Cc1onc(NC(=O)c2ccc(Cl)cc2Cl)c1Br | 11.6% |
| CCOc1ccc(Oc2ccc(NC(=O)[C@@H](NC(N)=O)[C@@H](C)CC)cc2)cc1 | 10.5% |
| COc1ccc(-n2c(C)cc(C(=O)CN3C(=O)NC4(CCc5ccccc54)C3=O)c2C)cc1 (stereo not drawn) | 10.9% |
| Cn1c(C(=O)NCCc2ccsc2)cc2c(=O)n(C)c3ccccc3c21 | 5.43% |
| O=C1NC(=O)C(=Cc2ccc(N3CCOCC3)o2)C(=O)N1 | 20.6% |
| Cc1cc(Nc2cccc(F)c2)nc(N2CCOCC2)n1 | 1.43% |
| O=C1C(Cl)=C(N2CCCCCC2)C(=O)N1c1ccc(Cl)cc1 | 15.5% |
| CCn1cc(C(=O)NCc2ccco2)c(=O)c2cc(S(=O)(=O)N3CCC(C)CC3)ccc21 | -12.2% |
